# Hit rate of the full screen: of about 94,000 compounds, about 4,000 (4.3%) were called active. The inconclusive results got no clear call from the source; some entries with a clear call stand among them for comparison. Calls follow the shape of the dose curve; as a rule, active = well fitted inhibition curve with a large enough effect; inconclusive = small, poorly fitted or top-dose-only effect; inactive = no such curve, though single readings can be large or run the other way. A potency beside an inconclusive call is a rough fit, not a confirmed value.
# Assay: Cytotoxic Profiling in NIH 3T3 Cell Line of Diverse Libraries Using Quantitative High-Throughput Screening; also: nearly all actives have a fitted effect of over 55% in size
# Conditions: NIH 3T3 viability, CellTiter-Glo ATP luminescence, 48-72 h; activity change, negative = cytotoxicity: at 96.7 µM (top of the series); series mostly up to 96.7 µM
# Outline: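 ATP-dependent luminescence (CellTiter-Glo) served as the viability signal for NIH 3T3 cells treated with compound for 48 or 72 hr at 37 °C.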
# % is scaled to controls: 0 for no effect and ±100 for the full control effect; potency is read from the fitted curve at half-maximal effect; tags tell the direction and shape of the fitted curve.
Compound,Potency,"activity change, negative = cytotoxicity",outcome
COc1ccc(C(=O)N2CCOC(Cc3cccc(C(F)(F)F)c3)C2)o1 (stereo not drawn),"inconclusive: 79.4 µM [inhibitor, partial curve, poor fit]",–,–
Cc1ccc(Nc2ccnc(N3CCCC(C(=O)NCc4cccc(F)c4)C3)n2)cc1 (stereo not drawn),"inconclusive: 35.5 µM [inhibitor, partial curve, poor fit]",–,–
Cn1ncc2c(C(=O)NCc3cccc(F)c3)cc(-c3ccc(Cl)cc3Cl)nc21,"inconclusive: 15.8 µM [inhibitor, full curve, poor fit]",–,–
CCN1CCN(C(=O)CNC(=O)c2cccc(-c3ccsc3)c2)CC1,–,inactive: -19.4%,–
N#CC1CCN(C(=O)C2CN(c3ccccc3)C(=O)N2)CC1 (stereo not drawn),–,inactive: -3.78% [at 138 µM],–
Cc1ccsc1C(=O)NC1CCN(c2cnn(CC3CC3)c(=O)c2)CC1,"inconclusive: 50.1 µM [inhibitor, partial curve, poor fit]",–,–
CC(=O)NCCC(=O)N1Cc2ccccc2CC2(CCCN2CCc2ccc(C)cc2)C1 (stereo not drawn),–,inactive: -1.04%,–
O=C(NCc1ccncc1)c1nc2c(o1)CCN(CCCc1ccccc1)CC2,"inconclusive: 44.7 µM [inhibitor, full curve, poor fit]",–,–
O[C@@H]1C[C@@H](c2nc(Cc3ccccc3)no2)N(CCCc2ccccc2)C1,"inconclusive: 100 µM [inhibitor, partial curve, poor fit]",–,–
Cc1ccc(C(=O)NC2CCN(c3cc(-c4ccc(F)cc4)[nH]n3)CC2)c(C)c1,"inconclusive: 44.7 µM [inhibitor, partial curve, poor fit]",–,–
COc1ccc(-c2cc(CC3(NCC(C)(C)C)COC3)no2)cc1,"inconclusive: 100 µM [inhibitor, partial curve]",–,–
CCn1cc(C(=O)N2CC(n3cc(COCc4ccccc4)nn3)C2)cn1,–,inactive: -17%,–
Cc1ccc(N2CC(c3noc(-c4cccc(N(C)C)c4)n3)CC2=O)cc1 (stereo not drawn),–,–,inactive
COCCNC(=O)c1cc(-c2cccnc2)nc2c1cnn2C,"inconclusive: 89.1 µM [inhibitor, single point]",–,–
COc1ccc(-c2nnc3ccc(NC(C)C)nn23)nc1,active: 50.1 µM,–,–
COc1ccccc1-c1ccnc(-n2ncc(C(=O)NCCc3cccnc3)c2C2CC2)n1,"inconclusive: 70.8 µM [inhibitor, single point]",–,–
c1ccc(CN2CCC(Nc3ncncn3)C2)cc1 (stereo not drawn),–,inactive: -14%,–
CNC(=O)CCn1ncc2cc(OCc3ccccc3-c3cc(Cl)ccc3OC)ccc21,"inconclusive: 50.1 µM [inhibitor, partial curve, poor fit]",–,–
COc1ccc(-c2nc(C3CC3)nc3c2CCN(Cc2ccc(C#N)cc2)CC3)cc1,"inconclusive: 70.8 µM [inhibitor, single point]",–,–
N#Cc1cccc(CN2Cc3[nH]cnc3C[C@H]2C(=O)NCc2ccco2)c1,"inconclusive: 100 µM [inhibitor, partial curve]",–,–
COc1ccc(C2Cn3nnc(-c4noc(C5CC5)n4)c3CO2)cc1 (stereo not drawn),"inconclusive: 50.1 µM [inhibitor, single point]",–,–

Compound,Potency,"activity change, negative = cytotoxicity",outcome
Cc1c(C(C)NC(=O)c2ccc(C#N)nc2)cnn1-c1ccc(F)cc1F (stereo not drawn),"inconclusive: 39.8 µM [inhibitor, partial curve]",–,–
COc1ccc(CC(=O)N2CCCN(c3cc(-c4ccc(F)cc4)[nH]n3)CC2)cc1,"inconclusive: 50.1 µM [inhibitor, partial curve, poor fit]",–,–
CC(C)CN1C(=O)c2ccccc2C(C(=O)Nc2ccc(C(N)=O)cc2)C12CCCCC2 (stereo not drawn),–,inactive: -26.7%,–
Cc1cc(-c2cccc(OCCn3ccnc3)c2)ccn1,"inconclusive: 70.8 µM [inhibitor, partial curve, poor fit]",–,–
CN(C)CCNC(=O)C[C@@H]1CCNC[C@@H]1Cc1cc(-c2ccc(C(C)(C)C)cc2)on1,active: 39.8 µM,–,–
CC(C)CCN1CCC2(C1)C(=NC1CCCCC1)NC(=O)N2c1cccnc1 (stereo not drawn),"inconclusive: 35.5 µM [inhibitor, partial curve]",–,–
O=C(c1ccccc1F)N1CCc2nc(-c3ccccc3)nc(-c3ccc(Cl)cc3)c2C1,"inconclusive: 25.1 µM [inhibitor, full curve]",–,–
O=C(NC1CCN(c2ccc3nnc(C4CC4)n3n2)C1)c1ccc(C(F)(F)F)cc1 (stereo not drawn),–,inactive: -19%,–
O=C(NC1CCCCC1)O[C@@H]1CO[C@H]2[C@@H]1OC[C@@H]2NC(=S)Nc1cccc2ccccc12,"inconclusive: 44.7 µM [inhibitor, partial curve, poor fit]",–,–
CCN1C(=O)CCN(S(=O)(=O)c2ccc3c(c2)CCC3)CC12CCOCC2,–,inactive: -22.8%,–
CCOC(=O)[C@@H]1[C@H]2c3ccccc3N(CCOC)C(=O)[C@H]2N(C(=O)c2ccccc2)[C@@H]1c1ccccc1,"inconclusive: 28.2 µM [inhibitor, partial curve, poor fit]",–,–
CCCC1C=CCN1C(=O)c1coc(CN2CCN(c3ccccc3F)CC2)n1 (stereo not drawn),"inconclusive: 28.2 µM [inhibitor, full curve]",–,–
CC(C)N1C(=O)CO[C@H]2CCN(Cc3cccc(C#N)c3)CC[C@@H]21,"inconclusive: 79.4 µM [inhibitor, partial curve, poor fit]",–,–
Cc1ccc(C)c(S(=O)(=O)N2CCCC(CO)(Cc3cccc(Cl)c3)C2)c1 (stereo not drawn),"inconclusive: 56.2 µM [inhibitor, partial curve, poor fit]",–,–
O=C(NC1C[C@H]2CC[C@@H](C1)N2C(=O)c1cccs1)c1ccncc1 (stereo partly drawn),–,inactive: -7.31%,–
COc1ccc(NC(=O)[C@@H]2C[C@@H](c3ccc(F)cc3)N(CCOc3ccccc3)C2)cc1,"inconclusive: 39.8 µM [inhibitor, partial curve]",–,–
O=C(c1ccncc1F)N1C[C@@H](COCC2CC2)[C@H](c2ccncc2)C1,"inconclusive: 79.4 µM [inhibitor, partial curve, poor fit]",–,–
Cc1cccc(-c2nc3cc(C(=O)NC4CCCCCC4)ccc3o2)n1,"inconclusive: 50.1 µM [inhibitor, partial curve, poor fit]",–,–
C#CCNC(=O)C[C@@H]1c2nc(NC(=O)c3ccc(OC)cc3)sc2C[C@@H]2[C@](C)(CO)[C@H](O)CC[C@]21C,"inconclusive: 44.7 µM [inhibitor, partial curve]",–,–
COc1cccc(CC(=O)N2CCC(c3n[nH]c(=O)n3Cc3ccc(F)cc3)CC2)c1,"inconclusive: 12.6 µM [inhibitor, full curve, poor fit]",–,–
O=C(NCc1ccccc1)C1CCCCN1Cc1ccc(-c2ccsc2)cc1 (stereo not drawn),"inconclusive: 22.4 µM [inhibitor, full curve]",–,–

Compound,Potency,"activity change, negative = cytotoxicity",outcome
CC1=NOC2(CCN(C(=O)c3ccc(C)cc3)CC2)C1,–,inactive: -38.7% [at 138 µM],–
NC(=O)c1ccc(CC2CCN(C(=O)C3CC3)CC2)cc1,"inconclusive: 50.1 µM [inhibitor, partial curve, poor fit]",–,–
COc1ccc(-c2cc(N3CCCN(C(=O)c4ccc(NC(C)=O)cc4)CC3)n[nH]2)cc1,–,inactive: -3.05%,–
O=C(c1cccnc1)N1CCC2(CC1)CC(N(Cc1ccc(F)cc1)C1CC1)CCO2 (stereo not drawn),–,inactive: -13.5%,–
CC(C)CC(=O)N1CCC(Oc2nccnc2N(C)C)C1 (stereo not drawn),–,inactive: 3%,–
O=C1NC2(CCN(Cc3ccc(F)cc3)C2)COc2ccccc21 (stereo not drawn),active: 28.2 µM,–,–
Cc1ccccc1CN1CCc2ncc(C(=O)Nc3ccccc3)n2CC1,"inconclusive: 56.2 µM [inhibitor, partial curve, poor fit]",–,–
O=C(NC1CCCCC1)N1Cc2[nH]cnc2C[C@H]1c1nc(-c2cccc([N+](=O)[O-])c2)no1,"inconclusive: 89.1 µM [inhibitor, partial curve, poor fit]",–,–
CN1CC(=O)N(C2CCC2)Cc2c1ncnc2N1CCC(c2ccccc2)CC1,"inconclusive: 50.1 µM [inhibitor, partial curve, poor fit]",–,–
CNC(=O)C1CCN(c2nccc(Nc3ccccc3OC)n2)CC1,"inconclusive: 89.1 µM [inhibitor, partial curve]",–,–
COCCN1C[C@H]2COc3ccccc3[C@H]2N(C(=O)COc2ccccc2)CCC1=O,"inconclusive: 70.8 µM [inhibitor, partial curve, poor fit]",–,–
COc1cccc(-c2ccc(C(=O)N3CCC(C(=O)NCCc4ccc(F)cc4)CC3)cc2)c1,"inconclusive: 50.1 µM [inhibitor, partial curve, poor fit]",–,–
Cc1cccc(-c2nc3ccc(C(=O)NCc4ccccc4F)cc3o2)n1,"inconclusive: 79.4 µM [inhibitor, partial curve, poor fit]",–,–
O=C1Nc2ccc(-c3ccc4c(c3)OCO4)cc2C(=O)N2CCN(C(=O)c3cccs3)C[C@H]12,"inconclusive: 89.1 µM [inhibitor, single point]",–,–
COc1ccc2nc(C[C@@H]3C[C@@H](C(C)C)[C@H](CNC(=O)C4CCCCC4)C=C3C)[nH]c2c1,active: 56.2 µM,–,–
COCCO[C@H]1C(=O)N(C2CCN(Cc3ccc(C#N)cc3)CC2)[C@H]1c1ccncc1,"inconclusive: 44.7 µM [inhibitor, partial curve]",–,–
N#Cc1ccc(C(=O)NCc2nnc3ccc(-c4ccccc4)nn23)cc1,–,inactive: -20.3%,–
Cc1noc2c(N(C)C)cc(-c3ccccc3)nc12,"inconclusive: 100 µM [inhibitor, partial curve]",–,–
COc1cccc(CNC(=O)C2CCN(C(=O)c3cc4c(=O)[nH]c(C)cn4n3)CC2)c1,–,inactive: -4.01%,–
CCOCC1(C)COc2ccc(C(=O)Nc3ccc(Cl)cc3)cc2N1 (stereo not drawn),active: 44.7 µM,–,–
O=C(NC1CCCN(c2ccc3nnc(-c4ccccc4)n3n2)C1)C1CCCC1 (stereo not drawn),"inconclusive: 56.2 µM [inhibitor, partial curve, poor fit]",–,–

# — PubChem BioAssay AID1345082 (National Center for Advancing Translational Sciences (NCATS), 2018)
